# Laboratory results as given in publication PMC4336329 (PLoS ONE, 2015).
# The whole screen tested about 310,000 compounds, of which about 2,200 (0.71%) showed an effect of 50% or more. The effect is printed as a negative number. Some of the results follow.
# Molecular target: human ether-à-go-go-related gene (hERG) potassium channel (human, UniProt Q12809)
# Test: primary screen, population patch clamp on CHO cells stably expressing hERG
# human ether-à-go-go-related gene (hERG) potassium channel, sequence (Q12809 whole entry, looked up): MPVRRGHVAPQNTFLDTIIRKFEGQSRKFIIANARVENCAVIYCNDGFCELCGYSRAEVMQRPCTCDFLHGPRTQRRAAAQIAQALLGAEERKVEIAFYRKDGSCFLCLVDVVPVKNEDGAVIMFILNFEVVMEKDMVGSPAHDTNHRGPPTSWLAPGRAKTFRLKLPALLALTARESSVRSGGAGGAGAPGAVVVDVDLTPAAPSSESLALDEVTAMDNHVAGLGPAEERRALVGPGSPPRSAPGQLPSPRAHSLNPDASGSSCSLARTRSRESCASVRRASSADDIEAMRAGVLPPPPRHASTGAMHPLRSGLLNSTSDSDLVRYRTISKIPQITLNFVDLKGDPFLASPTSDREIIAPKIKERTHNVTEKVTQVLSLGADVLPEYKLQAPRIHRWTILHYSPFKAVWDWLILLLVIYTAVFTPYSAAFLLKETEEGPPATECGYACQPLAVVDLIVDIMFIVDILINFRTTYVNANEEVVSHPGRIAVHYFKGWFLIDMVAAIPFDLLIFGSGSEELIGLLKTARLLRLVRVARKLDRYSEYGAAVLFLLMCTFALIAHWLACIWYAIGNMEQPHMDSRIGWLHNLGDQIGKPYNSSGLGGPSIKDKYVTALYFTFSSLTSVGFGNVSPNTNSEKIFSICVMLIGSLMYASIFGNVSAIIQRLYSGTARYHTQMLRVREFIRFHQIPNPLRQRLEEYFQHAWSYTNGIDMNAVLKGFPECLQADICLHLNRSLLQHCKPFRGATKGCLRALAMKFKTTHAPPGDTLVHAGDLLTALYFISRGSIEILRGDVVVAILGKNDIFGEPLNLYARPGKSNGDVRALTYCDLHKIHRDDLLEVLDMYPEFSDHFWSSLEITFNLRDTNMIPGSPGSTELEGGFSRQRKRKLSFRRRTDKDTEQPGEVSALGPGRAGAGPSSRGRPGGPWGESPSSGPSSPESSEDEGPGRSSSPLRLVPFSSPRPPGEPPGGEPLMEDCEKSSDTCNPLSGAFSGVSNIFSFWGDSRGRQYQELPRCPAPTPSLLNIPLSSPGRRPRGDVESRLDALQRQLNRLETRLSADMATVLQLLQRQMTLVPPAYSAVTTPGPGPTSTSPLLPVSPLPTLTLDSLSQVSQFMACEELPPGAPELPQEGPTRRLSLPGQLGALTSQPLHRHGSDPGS
row,SMILES,"hERG current change (%, negative = inhibition) at 1uM [%]"
1,COc1ccc(C(=O)NC2CCc3ccccc32)cc1OC1CCN(C(C)=O)CC1 (stereo not shown),9.68
2,COc1ccc(Nc2cc(=O)oc3ccccc23)cc1,9.98
3,Cc1cc(C)n(C(=O)COc2c(C)cccc2C)n1,11.5
4,CC/C(=N\O)C(C)(C)/[N+]([O-])=C/c1ccc(Br)cc1,9.75
5,C[C@@]12CCC3[C@@](CCC4[C@@]3(C)CCC[C@@]4(C)C(=O)N3CCCCC3)(CC1=O)C2 (stereo partly shown),13.8
6,O=C(Nc1ccc2c(c1)OCO2)N1CCN(Cc2ccco2)CC1,4.09
7,CCCNC(=O)C1CCN(S(=O)(=O)c2ccc(-c3nn[nH]n3)cc2)CC1,6.57
8,COc1ccc(NC(=O)COc2ccc(N(C)S(=O)(=O)c3ccc(Cl)cc3)cc2)cc1,10.5
9,C[C@]1(OC(=O)/C=C/c2ccccc2)C[C@@H](O)[C@]2(O)C=CO[C@@H](O[C@@H]3O[C@H](CO)[C@@H](O)[C@H](O)[C@H]3O)[C@@H]21,7.33
10,COc1ccccc1N1CCN(C(=O)CCS(=O)(=O)c2ccc3c(c2)oc(=O)n3C)CC1,14.5
11,Cc1cccc(N2C(=O)NC(=O)/C(=C\c3cnc(-c4ccccc4)nc3)C2=O)c1,11.2
12,CC(C)(C)[C@@H]1CCC(=O)N(CC[C@H](Sc2ccccc2)c2ccccc2)CC1,16.7
13,O=S(=O)(c1ccc(Cl)c(NC(=S)N/N=C/c2c(F)cccc2F)c1)N1CCOCC1,-0.887
14,COCCCN1C(=O)C(=O)/C(=C(/O)c2ccc(S(=O)(=O)N3CCOCC3)cc2)C1c1ccc(Cl)cc1 (stereo not shown),13.7
15,COc1cc2c(cc1NC(=O)Nc1ccccc1)oc1ccccc12,12.7
16,COc1cc(CCCN2CCNC[C@H]2Cc2ccc(O)cc2)cc(OC)c1OC,12.8
17,CCOc1cc(NC(=O)c2ccco2)c(OCC)cc1NC(=O)COc1ccccc1C,22.4
18,CCOC(=O)c1nn(-c2ccccc2)c(C(=O)OCC)c1N,7.57
19,N#Cc1cccc(NC(=O)COC(=O)c2ccccc2C(=O)c2ccc(Cl)c([N+](=O)[O-])c2)c1,8.6
20,CN(C)CCCn1c(N)c(C#N)c2nc3ccccc3nc21,8.29
21,CCC(C)N(C(=O)COC(=O)c1nc(Cl)ccc1Cl)C1CCS(=O)(=O)C1 (stereo not shown),13.7
22,Cc1ccc(-c2ccc(=O)n(CC(=O)NCc3ccc(F)cc3)n2)cc1,6.67

row,SMILES,"hERG current change (%, negative = inhibition) at 1uM [%]"
1,Cc1cccc(NC2SC(=O)N(CC(=O)O)C2=O)c1 (stereo not shown),11.1
2,CCOC(=O)C1=C(N)Oc2c(oc(CO)cc2=O)C1c1ccc(F)c(F)c1 (stereo not shown),9.25
3,COc1ccc(N(CCC(=O)O)S(=O)(=O)c2ccc(C)c(C)c2)cc1,8.65
4,CC(C)(CO)NCc1ccc(Br)cc1.Cl,5.93
5,O=C(COc1ccc2c3c(c(=O)oc2c1)CCC3)NCc1ccncc1,5.75
6,CC1(C)Cc2c(c(-c3ccco3)nc3sc4c(NCCN5CCOCC5)ncnc4c23)CO1,13
7,Cc1nc(NCCc2ccccc2)c2nnn(Cc3ccccc3)c2n1,18.3
8,CC(Nc1nc(-c2ccc(F)cc2)cs1)c1nc2cc(Cl)c(N3CCCCC3)cc2n1CCCO (stereo not shown),15.7
9,COc1ccc(CCC(C)NC(=O)CCc2ccccc2)c(OC)c1 (stereo not shown),6.95
10,CC(CCC(=O)O)C1CC[C@@]2(C)C3C(=O)CC4C(C)(C)C(O)CC[C@]4(C)C3C(=O)C[C@]12C (stereo partly shown),15.6
11,CS(=O)(=O)N1CCc2cc(C(=O)Nc3cccc([N+](=O)[O-])c3)ccc21,13.9
12,CCOc1ccc(C(C)C)cc1S(=O)(=O)Nc1ccc(Cl)cn1,10.9
13,CC1COC(Cn2c3ccccc3c3ccccc32)O1 (stereo not shown),14.5
14,COc1ccc(OC)c(/C=N/N2CCN(c3ccc(Cl)cc3)CC2)c1,11.8
15,OCCCNc1nc(-c2ccc(Br)cc2)nnc1-c1ccc(Cl)cc1,0.291
16,CC1SCC(=O)N(CC(=O)Nc2ccc3c(c2)OCCO3)C1=O (stereo not shown),4.39
17,COc1cc(NC(=O)c2cc(C)on2)cc(C(=O)Nc2cccc(C(F)(F)F)c2)c1,15.1
18,COc1ccc(OC)c(-n2c(-c3cccc(C)c3)n[nH]c2=S)c1,13.4
19,Cc1nn(-c2ccccc2)c2c1C(c1cccs1)C(C#N)=C(N)O2 (stereo not shown),7.4
20,COc1cc(NC(=O)c2ccc(Cl)cc2)c(OC)cc1NC(=O)CN1CCOCC1,0.784
21,CN1CC(c2ccc(Cl)c(Cl)c2)[C@@]2(COc3ccccc3C2=O)[C@@]12C(=O)Nc1ccccc12 (stereo partly shown),10.9
